The IC50 is the point on the concentration scale where inhibition reaches its midpoint.

A lower IC50 marks a more sensitive line; where the fit passes the top or lowest dose, that dose stands as a limit. AUC sums up the same curve from the lowest dose to the 256-fold higher top dose: 1 means no effect, lower means more sensitive. For some of these results: Where the top dose is marked as inferred, it was derived from the fitted curves, not read from the paper.

Among the data in the supplement of paper PMC4967469 are AUC and IC50 values, retold here.

Holding throughout (test): Viability of human cancer cell lines after 72 h of drug (GDSC screen)
Compound in assay [1]: CO[C@H]1C[C@@H]2CC[C@@H](C)[C@@](O)(O2)C(=O)C(=O)N2CCCC[C@H]2C(=O)O[C@H]([C@H](C)C[C@@H]2CC[C@@H](OC(=O)C(C)(CO)CO)[C@H](OC)C2)CC(=O)[C@H](C)/C=C(\C)[C@@H](O)[C@@H](OC)C(=O)[C@H](C)C[C@H](C)/C=C/C=C/C=C/1C [Temsirolimus]
To be noted: top dose 0.2 µM. As to the method: (§1)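 Human cancer cell lines in 384-well plates, medium with 10% serum, drug for 72 h over a 256-fold dose range (nine 2-fold or five 4-fold steps up to the top dose). Adherent lines were fixed and stained with the nucleic acid dye Syto60, suspension lines read with resazurin; signal relative to control wells, capped at 0 and 100%. One two-parameter sigmoid per drug and line, fitted in a mixed model over all curves with the slope shared within a line.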

Compound in assay [2]: CC(=O)O[C@@H]1[C@@H](OC(C)=O)[C@@H](O)[C@H](Oc2c(-c3ccc(O)cc3)oc3cc(O)cc(O)c3c2=O)O[C@H]1C [SL 0101-1]
To be noted: top dose 10 µM; top dose inferred. As for the experimental part:
as §1

Compound in assay [3]: C=CC(=O)Nc1ccc(C(=O)c2sc(Nc3ccc(N4CCN(C)CC4)cc3OC)nc2N)cc1 [XMD15-27]
The note with it: top dose 10.24 µM; top dose inferred. As for the experimental part: as §1

Consider A549 (lung adenocarcinoma, adherent), for which the AUC was 0.502 in assay [1] and 0.983 in assay [2]. For the same cell line, the IC50 was 12.7 nM in assay [1] and more than 10000 nM in assay [2].

Regarding A2058 (melanoma, adherent), in assay [1], the AUC was determined as 0.685 and the half-inhibitory concentration (IC50) turned out to be 38.6 nM. Moreover, in assay [3], the AUC amounted to 0.99 and the 50% inhibitory concentration (IC50) is more than 10200 nM.

In the case of ABC-1 (lung adenocarcinoma, adherent), the AUC came to 0.785 in assay [1] and 0.98 in assay [3]. The 50% inhibitory concentration (IC50) in assay [1] is 105 nM; in assay [3], more than 10200 nM.

Take ACHN (kidney, adherent): in assay [1], the AUC was 0.866 and the concentration for half-maximal inhibition (IC50) is more than 200 nM. In addition, in assay [3], the AUC came to 0.97 and the concentration for half-maximal inhibition (IC50) is more than 10200 nM.

In the case of AN3-CA (endometrium, adherent), the AUC in assay [1] came out at 0.637; in assay [3], 0.985. The IC50 is 31.2 nM in assay [1] and more than 10200 nM in assay [3].

With “ATN-1 (T-cell lymphoblastic leukaemia, suspension)”, in assay [1], the AUC was 0.614 and the IC50 was 25.2 nM. For the same cell line, in assay [3], the AUC stood at 0.976 and the IC50 is more than 10200 nM.

In the case of BALL-1 (B-cell leukaemia, suspension), in assay [1], the AUC stood at 0.914 and the IC50 came to 147 nM. In assay [2], the AUC is 0.997 and the IC50 is more than 10000 nM.

On to BB65-RCC (kidney, adherent), for which, in assay [1], the AUC came out at 0.421 and the half-maximal inhibitory concentration (IC50) is 7.36 nM. In assay [3], the AUC was 0.983 and the IC50 is more than 10200 nM.

Take “BE-13 (lymphoblastic leukaemia, suspension)”: in assay [1], the AUC was 0.363 and the IC50 amounted to 5.37 nM. In assay [3], the AUC was found to be 0.967 and the IC50 was more than 10200 nM.

For BT-549 (breast, adherent), in assay [1], the AUC came out at 0.692 and the half-maximal inhibitory concentration (IC50) was 53.9 nM. In assay [2], the AUC was determined as 0.979 and the half-inhibitory concentration (IC50) was more than 10000 nM.

CAKI-1 (kidney, adherent): the values for the AUC in assay [1] and in assay [3] were 0.697 and 0.974, respectively. The IC50 in assay [1] is 59.4 nM; in assay [3], more than 10200 nM.

In the case of CL-34 (large intestine, adherent), in assay [1], the AUC was 0.987 and the concentration for half-maximal inhibition (IC50) is more than 200 nM. In assay [2], the AUC stood at 0.987 and the IC50 was more than 10000 nM.

For CL-40 (large intestine, adherent), in assay [1], the AUC was 0.962 and the IC50 was more than 200 nM. Also, in assay [2], the AUC came to 0.976 and the IC50 was more than 10000 nM.

Regarding “CML-T1 (chronic myeloid leukaemia, suspension)”, in assay [1], the AUC stood at 0.656 and the concentration for half-maximal inhibition (IC50) is 31.2 nM. In assay [2], the AUC was determined as 0.976 and the 50% inhibitory concentration (IC50) was more than 10000 nM.

As for CRO-AP2 (B-cell lymphoma, suspension), in assay [1], the AUC was 0.187 and the half-maximal inhibitory concentration (IC50) was 1.72 nM. For the same cell line, in assay [2], the AUC was 0.988 and the IC50 was more than 10000 nM.

For DIFI (large intestine, adherent), in assay [1], the AUC is 0.808 and the IC50 amounted to 109 nM. In addition, in assay [2], the AUC is 0.986 and the concentration for half-maximal inhibition (IC50) is more than 10000 nM.

Take “DMS-53 (small cell lung carcinoma, adherent)”: in assay [1], the AUC turned out to be 0.986 and the IC50 was more than 200 nM. Moreover, in assay [3], the AUC was 0.988 and the concentration for half-maximal inhibition (IC50) is more than 10200 nM.

In the case of DOHH-2 (B-cell lymphoma, suspension), in assay [1], the AUC is 0.524 and the IC50 was 14.5 nM. For the same cell line, in assay [2], the AUC worked out at 0.933 and the IC50 is more than 10000 nM.

Consider EFM-19 (breast, adherent), for which, in assay [1], the AUC turned out to be 0.657 and the IC50 was 43 nM. In addition, in assay [3], the AUC came out at 0.978 and the IC50 is more than 10200 nM.

For EHEB (lymphoid neoplasm, suspension), the AUC was determined as 0.698 in assay [1] and 0.959 in assay [2]. For the same cell line, the values for the IC50 in assay [1] and in assay [2] were 58.9 nM and more than 10000 nM, respectively.

In the case of “EPLC-272H (lung squamous cell carcinoma, adherent)”, in assay [1], the AUC worked out at 0.814 and the half-inhibitory concentration (IC50) was 127 nM. Also, in assay [3], the AUC came to 0.974 and the concentration for half-maximal inhibition (IC50) was more than 10200 nM.

In the case of G-MEL (melanoma, adherent), in assay [1], the AUC was 0.48 and the IC50 was determined as 11.1 nM. In assay [3], the AUC stood at 0.981 and the IC50 is more than 10200 nM.
